The record followed here is patent publication US11773160 (ANAVEON, dated 2023).

Experiment [1] deals with T1, trimeric IL-2 receptor on HEK-Blue IL-2 reporter cells (UniProt P01589 22-272; P14784 27-551; P31785 23-369, limits assumed).
T1 sequence (looked up) 1: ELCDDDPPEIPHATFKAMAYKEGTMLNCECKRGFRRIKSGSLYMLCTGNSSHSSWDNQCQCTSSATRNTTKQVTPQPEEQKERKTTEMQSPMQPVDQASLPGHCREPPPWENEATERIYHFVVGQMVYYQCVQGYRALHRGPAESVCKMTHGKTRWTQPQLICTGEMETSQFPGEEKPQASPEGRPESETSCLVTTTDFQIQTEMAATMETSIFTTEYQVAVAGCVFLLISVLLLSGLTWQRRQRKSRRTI
T1 sequence (looked up) 2: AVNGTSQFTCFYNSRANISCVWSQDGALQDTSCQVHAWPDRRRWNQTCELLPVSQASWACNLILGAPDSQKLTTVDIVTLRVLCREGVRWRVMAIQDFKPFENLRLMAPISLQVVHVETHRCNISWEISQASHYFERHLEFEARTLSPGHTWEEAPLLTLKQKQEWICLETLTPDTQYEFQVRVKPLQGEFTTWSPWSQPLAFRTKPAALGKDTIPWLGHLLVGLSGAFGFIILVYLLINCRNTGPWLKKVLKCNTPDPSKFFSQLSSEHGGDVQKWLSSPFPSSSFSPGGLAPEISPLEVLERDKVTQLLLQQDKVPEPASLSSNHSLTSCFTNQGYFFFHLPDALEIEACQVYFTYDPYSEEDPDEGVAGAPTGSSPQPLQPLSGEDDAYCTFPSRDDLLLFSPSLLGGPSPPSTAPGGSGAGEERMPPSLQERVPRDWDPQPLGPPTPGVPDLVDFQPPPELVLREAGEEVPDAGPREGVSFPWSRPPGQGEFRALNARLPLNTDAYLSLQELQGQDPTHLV
T1 sequence (looked up) 3: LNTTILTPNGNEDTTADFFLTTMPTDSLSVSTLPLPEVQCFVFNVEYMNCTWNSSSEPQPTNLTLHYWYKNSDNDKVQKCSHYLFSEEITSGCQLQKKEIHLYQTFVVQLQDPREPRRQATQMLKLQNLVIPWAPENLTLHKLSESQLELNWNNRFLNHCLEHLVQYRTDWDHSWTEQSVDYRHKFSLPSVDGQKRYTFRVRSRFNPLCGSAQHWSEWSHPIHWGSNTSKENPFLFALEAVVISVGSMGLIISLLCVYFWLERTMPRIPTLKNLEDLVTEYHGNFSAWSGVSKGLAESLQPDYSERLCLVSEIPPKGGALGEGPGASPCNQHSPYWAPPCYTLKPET
In words: cell-based or functional assay.

Experiment [2] concerns the target T2, His-tagged recombinant CD25 (human, UniProt P01589 22-213, limits assumed).
T2 construct: Captured via TrisNTA Biotin on SA chips; also called IL-2 receptor alpha; IL-2Rα; not shown: His tag
T2 sequence (looked up): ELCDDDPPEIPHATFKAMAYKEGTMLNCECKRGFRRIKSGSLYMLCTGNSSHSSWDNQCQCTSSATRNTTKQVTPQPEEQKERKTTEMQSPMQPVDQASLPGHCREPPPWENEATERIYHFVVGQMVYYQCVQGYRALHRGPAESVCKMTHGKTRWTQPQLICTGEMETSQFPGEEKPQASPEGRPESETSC
In words: SPR (BIAcore 3000), His-tagged CD25 captured via TrisNTA Biotin on SA chip, kinetic titration of fusion protein. Here is the method: HEK-Blue™ IL-2 reporter cells (Invivogen) were incubated with a dilution series (1:3 dilutions from 0.56 nM) of antibody-IL-2 fusion protein in growth medium for 20 hours Example 4. IL-2 fusion protein in vitro selectivity Binding affinities to CD25 measured by SPR Binding affinities of the IL-2 fusion protein to the IL-2 receptor CD25 were measured by SPR (BIAcore 3000, GE Healthcare, 33-1140587-3682). His-tagged recombinant CD25 was captured via TrisNTA Biotin on SA chips and Kinetic titration of IL-2 fusion proteins of the present invention was performed reaching concentrations up to 500 nM.

The target in experiment [3] is monoclonal anti-human IL-2 antibody Nara1. In words: ELISA, Nara1 coated, fusion protein titrated, anti-human IgG-Peroxidase; lowest concentration with signal at or above the cut point. Background: An ELISA detects its analyte on a solid surface through an enzyme-linked reagent.
The target of experiment [4] is T3, IL-2R on murine splenocytes (C57BL/6).
T3 sequence (P01590 whole entry, looked up): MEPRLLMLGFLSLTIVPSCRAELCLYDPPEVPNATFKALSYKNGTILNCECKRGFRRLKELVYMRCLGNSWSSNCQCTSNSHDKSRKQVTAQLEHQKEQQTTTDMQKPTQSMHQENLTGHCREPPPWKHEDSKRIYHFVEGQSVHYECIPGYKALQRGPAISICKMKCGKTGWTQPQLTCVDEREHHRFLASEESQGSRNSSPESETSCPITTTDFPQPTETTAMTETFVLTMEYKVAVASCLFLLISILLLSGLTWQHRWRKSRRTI
T3 sequence (P16297 whole entry, looked up): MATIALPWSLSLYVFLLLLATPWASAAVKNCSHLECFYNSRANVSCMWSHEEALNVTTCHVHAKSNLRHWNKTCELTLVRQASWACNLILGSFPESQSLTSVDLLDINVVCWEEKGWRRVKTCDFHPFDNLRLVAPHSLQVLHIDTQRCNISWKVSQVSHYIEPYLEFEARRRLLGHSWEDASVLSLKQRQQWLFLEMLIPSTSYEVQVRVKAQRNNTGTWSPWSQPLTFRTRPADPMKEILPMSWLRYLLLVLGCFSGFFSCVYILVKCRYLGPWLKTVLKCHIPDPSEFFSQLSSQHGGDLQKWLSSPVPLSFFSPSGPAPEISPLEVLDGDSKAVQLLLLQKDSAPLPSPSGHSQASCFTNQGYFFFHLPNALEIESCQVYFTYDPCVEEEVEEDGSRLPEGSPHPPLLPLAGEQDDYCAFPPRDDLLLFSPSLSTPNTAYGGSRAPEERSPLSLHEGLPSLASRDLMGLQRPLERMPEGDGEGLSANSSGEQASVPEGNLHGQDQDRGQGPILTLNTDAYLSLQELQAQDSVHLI
T3 sequence (P34902 whole entry, looked up): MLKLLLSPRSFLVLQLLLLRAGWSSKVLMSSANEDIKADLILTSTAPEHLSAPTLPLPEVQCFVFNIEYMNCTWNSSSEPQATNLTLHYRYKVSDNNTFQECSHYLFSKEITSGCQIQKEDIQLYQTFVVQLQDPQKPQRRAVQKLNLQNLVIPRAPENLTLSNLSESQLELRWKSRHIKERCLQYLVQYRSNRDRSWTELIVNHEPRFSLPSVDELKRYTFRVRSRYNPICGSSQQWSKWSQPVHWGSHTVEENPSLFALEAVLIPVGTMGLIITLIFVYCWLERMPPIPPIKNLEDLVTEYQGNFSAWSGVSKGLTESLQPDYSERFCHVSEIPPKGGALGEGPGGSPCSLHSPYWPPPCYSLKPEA
In words: cell-based or functional assay.

Experiment [5] concerns the target T4, monoclonal anti-human IL-2 antibody 5344 (BD, 555051).
T4 construct: Coated capture antibody
In words: sandwich ELISA, 5344 coated, fusion protein titrated, anti-human IgG-Peroxidase. The procedure: The antibody-IL-2 fusion proteins were tested on a sandwich ELISA, to assess the correct folding of the IL-2 portion. […] The obtained signals (Absorbance 450-570 nm) were plotted as function of antibody-IL-2 fusion protein concentration (as log value). The $EC50$ values were interpolated fitting the data with GraphPad Prism 8 (Table 6).

The term Kd denotes the constant that tells how readily two partners part at equilibrium. The term EC50 denotes the concentration needed to bring the measured effect to its halfway point.

B1: BFC885 (other)
heavy: QVQLVESGGGVVQPGRSLRLSCAASGYTFSSYLIEWVRQAPGKGLEWVAVINPGSGGTNYADSVKGRFTISADKSKNTAYLQMNSLRAEDTAVYYCARWRGDGYYAYFDVWGQGTTVTVSSASTKGPSVFPLAPSSKSTSGGTAALGCLVKDYFPEPVTVSWNSGALTSGVHTFPAVLQSSGLYSLSSVVTVPSSSLGTQTYICNVNHKPSNTKVDKRV[omitted - human IgG1 Fc]
light: EIVLTQSPATLSVSPGERATLSCRASQSVSYGGGGSGGGGSGGGNFHLRPRDLISNINVIVLELKGSETTFMCEYADETATIVEFLNRWITFSQSIISTLTPTSSSTKKTQLQLEHLLLDLQMILNGINNYKNPKLTRMLTFKFYMPKKATELKHLQCLEEELKPLEEVLNLAQSKGGGGSGGGGSGGGGDSYMNWYQQKPGQAPRLLIYAASNLASGIPARFSGSGSGTEFTLTISSLQSEDAAVYYCQQSNEDPYTFGGGTKVEIKRTVAAPSVFIFPPSDEQLKSGTASVVCLLNNFYPREAKVQWKVDNALQSGNSQESVTEQDSKDSTYSLSSTLTLSKADYEKHKVYACEVTHQGLSSPVTKSFNRGEC
notes: also called IL-2 fusion protein to antibody B, linker 1 13 AA, linker 2 14 AA
For the molecule B1, the “EC50 (M), SEAP of HEK-Blue IL-2 reporter cells” value in experiment [1] was found to be 5.09e-12 M. Besides, the Kd in experiment [2] came to 54.1 nM. In addition, in experiment [3], the “Lowest concentration (nM) OD450-570 ≥ CP” value was less than 0.09 nM. In addition, in experiment [4], the “EC50 CD8 cells (nM), pSTAT5 MFI” value is 26.4 nM; the “EC50 NK cells (nM), pSTAT5 MFI” value came to 2 nM; the “EC50 Treg cells (nM), pSTAT5 MFI” value came to 0.9 nM. This molecule also yielded an EC50 in experiment [5] of 0.25 nM.
